# Test results: the supplement of paper PMC8728848
# Some of the results follow.
# B1: PhoSpL (Pholiota squarrosa) (peptide)
# chain: APVPVTKLVCDGDTYKCTAYLDFGDGRWVAQWDTNVFHTG
# Key:
# Experiment in all cases: glycan array binding signal (z-score within array); higher = stronger binding
# Conditions in all cases: glycan notation: IUPAC condensed, linker removed
# [1] = target: Man(a1-2)Man(a1-3)[Man(a1-2)Man(a1-6)]Man
# Method in brief: (§1)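 Glycan array data were curated from 3228 arrays in the Consortium for Functional Glycomics database and kept only where the protein sequence was available. Glycan names were converted to IUPAC-condensed notation, and columns mapping to the same glycan were averaged. The binding signal is a within-array Z-score, averaged across arrays of the same protein sequence at different concentrations or buffers and across linkers. Negative Z-scores can be read as non-binding.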
# [2] = target: Man(a1-2)Man(a1-3)[Man(a1-2)Man(a1-6)]Man(a1-6)[Man(a1-2)Man(a1-2)Man(a1-3)]Man
# Method in brief: as §1
# [3] = target: Man(a1-2)Man(a1-3)[Man(a1-2)Man(a1-6)]Man(a1-6)[Man(a1-2)Man(a1-2)Man(a1-3)]Man(b1-4)GlcNAc(b1-4)GlcNAc
# Method in brief: as §1
# [4] = target: Man(a1-2)Man(a1-3)[Man(a1-6)]Man(a1-6)[Man(a1-2)Man(a1-3)]Man(b1-4)GlcNAc(b1-4)GlcNAc
# Method in brief: as §1
# [5] = target: Man(a1-2)Man(a1-6)[Man(a1-3)]Man(a1-6)[Man(a1-2)Man(a1-2)Man(a1-3)]Man
# Method in brief: as §1
# [6] = target: Man(a1-2)Man(a1-6)[Man(a1-3)]Man(a1-6)[Man(a1-2)Man(a1-2)Man(a1-3)]Man(b1-4)GlcNAc(b1-4)GlcNAc
# Method in brief: as §1
# Man(a1-3)[Man(a1-6)]Man = target: Man(a1-3)[Man(a1-6)]Man
# Method in brief: as §1
# [7] = target: Man(a1-3)[Man(a1-6)]Man(a1-6)[Man(a1-2)Man(a1-3)]Man(b1-4)GlcNAc(b1-4)GlcNAc
# Method in brief: as §1
# [8] = target: Man(a1-3)[Man(a1-6)]Man(a1-6)[Man(a1-3)]Man
# Method in brief: as §1
# [9] = target: Man(a1-3)[Man(a1-6)]Man(a1-6)[Man(a1-3)]Man(b1-4)GlcNAc(b1-4)GlcNAc
# Method in brief: as §1
# [10] = target: Man(a1-3)[Man(a1-6)]Man(b1-4)GlcNAc(b1-4)GlcNAc
# Method in brief: as §1
# [11] = target: Man(a1-3)[Man(a1-6)]Man(b1-4)GlcNAc(b1-4)[Fuc(a1-6)]GlcNAc
# Method in brief: as §1
# Man(a1-6)Man = target: Man(a1-6)Man
# Method in brief: as §1
# Man(b1-4)GlcNAc = target: Man(b1-4)GlcNAc
# Method in brief: as §1
# MurNAc(b1-4)GlcNAc = target: MurNAc(b1-4)GlcNAc
# Method in brief: as §1
# Neu5Ac(a2-3)Gal = target: Neu5Ac(a2-3)Gal
# Method in brief: as §1
# [12] = target: Neu5Ac(a2-3)Gal(b1-3)GalNAc
# Method in brief: as §1
# [13] = target: Neu5Ac(a2-3)Gal(b1-3)GalNAc(b1-3)Gal(a1-4)Gal(b1-4)Glc
# Method in brief: as §1
# [14] = target: Neu5Ac(a2-3)Gal(b1-3)GalNAc(b1-4)Gal(b1-4)Glc
# Method in brief: as §1
# [15] = target: Neu5Ac(a2-3)Gal(b1-3)GalNAc(b1-4)[Neu5Ac(a2-3)]Gal(b1-4)Glc
# Method in brief: as §1
# [16] = target: Neu5Ac(a2-3)Gal(b1-3)GalNAc(b1-4)[Neu5Ac(a2-8)Neu5Ac(a2-3)]Gal(b1-4)Glc
# Method in brief: as §1
# [17] = target: Neu5Ac(a2-3)Gal(b1-3)GalNAc6S
# Method in brief: as §1
# [18] = target: Neu5Ac(a2-3)Gal(b1-3)GlcNAc
# Method in brief: as §1
# [19] = target: Neu5Ac(a2-3)Gal(b1-3)GlcNAc(b1-2)Man
# Method in brief: as §1
# [20] = target: Neu5Ac(a2-3)Gal(b1-3)GlcNAc(b1-2)Man(a1-3)[GlcNAc(b1-4)][Neu5Ac(a2-3)Gal(b1-3)GlcNAc(b1-2)Man(a1-6)]Man(b1-4)GlcNAc(b1-4)GlcNAc
# Method in brief: as §1
# [21] = target: Neu5Ac(a2-3)Gal(b1-3)GlcNAc(b1-2)Man(a1-3)[Neu5Ac(a2-3)Gal(b1-3)GlcNAc(b1-2)Man(a1-6)]Man(b1-4)GlcNAc(b1-4)GlcNAc
# Method in brief: as §1
# [22] = target: Neu5Ac(a2-3)Gal(b1-3)GlcNAc(b1-2)[Neu5Ac(a2-3)Gal(b1-3)GlcNAc(b1-4)]Man(a1-6)[Neu5Ac(a2-3)Gal(b1-3)GlcNAc(b1-2)Man(a1-3)]Man(b1-4)GlcNAc(b1-4)GlcNAc
# Method in brief: as §1
# [23] = target: Neu5Ac(a2-3)Gal(b1-3)GlcNAc(b1-3)Gal(b1-3)GlcNAc
# Method in brief: as §1
# [24] = target: Neu5Ac(a2-3)Gal(b1-3)GlcNAc(b1-3)Gal(b1-4)GlcNAc
# Method in brief: as §1
# [25] = target: Neu5Ac(a2-3)Gal(b1-3)GlcNAc(b1-3)GalNAc
# Method in brief: as §1
# [26] = target: Neu5Ac(a2-3)Gal(b1-3)GlcNAc(b1-6)GalNAc
# Method in brief: as §1
# [27] = target: Neu5Ac(a2-3)Gal(b1-3)GlcNAc6S
# Method in brief: as §1
# [28] = target: Neu5Ac(a2-3)Gal(b1-3)[Fuc(a1-4)]GlcNAc
# Method in brief: as §1
# [29] = target: Neu5Ac(a2-3)Gal(b1-3)[Fuc(a1-4)]GlcNAc(b1-3)Gal(b1-3)[Fuc(a1-4)]GlcNAc
# Method in brief: as §1
# [30] = target: Neu5Ac(a2-3)Gal(b1-3)[Fuc(a1-4)]GlcNAc(b1-3)Gal(b1-4)[Fuc(a1-3)]GlcNAc
# Method in brief: as §1
# [31] = target: Neu5Ac(a2-3)Gal(b1-3)[GlcNAc(b1-6)]GalNAc
# Method in brief: as §1
# [32] = target: Neu5Ac(a2-3)Gal(b1-3)[Neu5Ac(a2-6)]GalNAc
# Method in brief: as §1
# [33] = target: Neu5Ac(a2-3)Gal(b1-3)[Neu5Ac(a2-6)]GlcNAc(b1-3)[Fuc(a1-3)[Gal(b1-4)]GlcNAc(b1-6)]Gal(b1-4)Glc
# Method in brief: as §1
binder,measurement,setting,value
B1,glycan array binding signal (z-score),[1],-0.443
same,glycan array binding signal (z-score),[2],-0.503
same,glycan array binding signal (z-score),[3],-0.304
same,glycan array binding signal (z-score),[4],-0.525
same,glycan array binding signal (z-score),[5],-0.415
same,glycan array binding signal (z-score),[6],-0.211
same,glycan array binding signal (z-score),Man(a1-3)[Man(a1-6)]Man,-0.118
same,glycan array binding signal (z-score),[7],0.212
same,glycan array binding signal (z-score),[8],-0.462
same,glycan array binding signal (z-score),[9],-0.068
same,glycan array binding signal (z-score),[10],-0.131
same,glycan array binding signal (z-score),[11],6.32
same,glycan array binding signal (z-score),Man(a1-6)Man,-0.564
same,glycan array binding signal (z-score),Man(b1-4)GlcNAc,-0.41
same,glycan array binding signal (z-score),MurNAc(b1-4)GlcNAc,-0.337
same,glycan array binding signal (z-score),Neu5Ac(a2-3)Gal,-0.325
same,glycan array binding signal (z-score),[12],-0.186
same,glycan array binding signal (z-score),[13],-0.603
same,glycan array binding signal (z-score),[14],0.013
same,glycan array binding signal (z-score),[15],0.143
same,glycan array binding signal (z-score),[16],-0.317
same,glycan array binding signal (z-score),[17],-0.165
same,glycan array binding signal (z-score),[18],0.036
same,glycan array binding signal (z-score),[19],-0.135
same,glycan array binding signal (z-score),[20],-0.151
same,glycan array binding signal (z-score),[21],0.04
same,glycan array binding signal (z-score),[22],-0.65
same,glycan array binding signal (z-score),[23],-0.282
same,glycan array binding signal (z-score),[24],0.31
same,glycan array binding signal (z-score),[25],0.15
same,glycan array binding signal (z-score),[26],0.594
same,glycan array binding signal (z-score),[27],0.282
same,glycan array binding signal (z-score),[28],-0.314
same,glycan array binding signal (z-score),[29],-0.57
same,glycan array binding signal (z-score),[30],-0.765
same,glycan array binding signal (z-score),[31],-0.29
same,glycan array binding signal (z-score),[32],-0.216
same,glycan array binding signal (z-score),[33],-0.383
